Among all 52,000 compounds or so, about 4,300 (8.3%) were called active. No stated cut-off is given here; in the data, active means survival mostly below about 52% (no sharp cut-off); inactive means mostly above about 56%. This is one part of the list.

For this assay, the system named is DeltatarO mutant. In words: growth inhibition of S. aureus wild type versus tarO mutant, primary screen, teichoic acid synthesis inhibitors, RN4220, OD600 (AID 463173). The following applies: OD600, 18 h, active compounds read low, screened at 18.75 µg/mL (by protocol).
On to `Cc1ccc(-c2noc(CNC(=O)c3ccccc3)n2)cc1`, for which the survival was inactive: 63%.

For the molecule `CCC1CN(C(=O)N2CCC(C(=O)NCc3ccccc3C)CC2)c2ccccc2O1` (stereo unspecified), the survival was inactive: 88%.

For `CCOC(=O)C1Cc2ccccc2CN1` (stereo unspecified), the survival was inactive: 94%.

Consider `CC(C)NC(=O)C1CCN(c2nc3ccccc3nc2C(F)(F)F)CC1`, for which the survival is inactive: 101%.

`Cc1ccc(C2=NN(CC(=O)NCCN(CC(C)C)CC(C)C)C(=O)CC2)cc1`: the survival was inactive: 131%.

As for `O=C(NCc1ccccc1)c1ccc(CSc2nc3cccnc3n2Cc2ccccc2F)cc1`, the survival was inactive: 101%.

Consider `Cc1ccc(Cn2c(C)c(CNCCCc3ccccc3)c(C(=O)O)c2C)cc1`, for which the survival was inactive: 83%.

Turning to `CCOc1cc(S(=O)(=O)N(CC)CC)c(OCC)cc1-n1cnnn1`, the survival was inactive: 76%.

For `Cc1ccc2nc(Cl)c(CO)cc2c1`, the survival is inactive: 71%.

For `CCCCNC(=O)CSc1nnc(C)c2c(C)n(-c3ccccc3)nc12`, the survival was inactive: 75%.

As for `CCCc1nc(C(C#N)c2ccc(F)cc2)c2nnn(Cc3ccccc3)c2n1` (stereo unspecified), the survival is inactive: 90%.

For `CC1CCN(S(=O)(=O)c2ccc3c(c2)CCC(=O)N3CC(=O)Nc2cccc(C#N)c2)CC1`, the survival was inactive: 78%.

Consider `Cc1nc(N2CCCC2)ncc1C(=O)Nc1ccc(F)cc1F`, for which the survival is inactive: 90%.

`COc1ccccc1OCC(=O)Nc1nc(-c2ccc(Br)cc2)ns1`: the survival was inactive: 65%.

Consider `Cc1ccc(NC(=O)C2CCN(S(=O)(=O)c3c(C)noc3/C=C/c3ccco3)CC2)cc1C`, for which the survival was inactive: 66%.

Take `CC(C)N(Cc1ccccc1)C(=O)CCS(=O)(=O)c1ccc2c(c1)oc(=O)n2C`: the survival was inactive: 102%.

Turning to `Cc1ccc(S(=O)(=O)c2cn(C)c3cc(N4CCCC(C)C4)c(F)cc3c2=O)c(C)c1` (stereo unspecified), the survival is inactive: 81%.

As to `O=C(NCCOCCn1c(=O)oc2ccccc21)Nc1ccc(F)cc1`, the survival was inactive: 67%.

As to `Cc1cccc(N(C)C(=O)CSc2nc3ncccc3o2)c1`, the survival is inactive: 67%.

`Cc1ccc2c(c1)cc1c(=O)n(CC(=O)N3CCCCC3)nc(C)n12`: the survival is inactive: 90%.

As to `O=C(NCC1CCCO1)c1c[nH]c2ccc(S(=O)(=O)Nc3cccc(C(F)(F)F)c3)cc2c1=O` (stereo unspecified), the survival was inactive: 80%.

With `COc1ccc2c(c1)c1c(c(=O)n(-c3ccccc3)c(=O)n1CC(=O)Nc1ccc(C)c(C)c1)n2C`, the survival was inactive: 71%.

As for `CN(Cc1ccccc1)S(=O)(=O)c1nnc(NC(=O)c2ccccc2)s1`, the survival was active: 26%.

For `Cc1ccc(CN2CCc3nc(N4CCN(C)CC4)ncc3C2)s1`, the survival is inactive: 82%.

`Cc1ccc(-n2ncc3c(N4CCC(Cc5ccccc5)CC4)ncnc32)cc1`: the survival was inactive: 96%.

In the case of `Cc1c(Cl)cccc1NC(=O)Cn1cnc2nc3c(cc2c1=O)CCCC3`, the survival was inactive: 126%.

On to `O=C1OC(Nc2ccc3ncccc3c2)c2ccccc21` (stereo unspecified), for which the survival is active: 30%.

As to `CC(C)(C)CC(=O)NC1CC(=O)N(c2ccc3c(c2)OCCO3)C1` (stereo unspecified), the survival was inactive: 123%.

Regarding `O=C(c1ccc2c(c1)N(Cc1ccccc1F)C(=O)c1ccccc1S2=O)N1CCOCC1` (stereo unspecified), the survival is inactive: 88%.

As to `O=C(Nc1c(C(=O)Nc2ccccc2F)oc2ccccc12)c1cc2ccccc2o1`, the survival is active: 37%.

Turning to `Cc1ccc(C)c(CS(=O)(=O)c2cn(CC(=O)N(C(C)C)C(C)C)c3ccccc23)c1`, the survival was inactive: 63%.

`COC(=O)CCn1cnc2onc(-c3cc(F)cc(F)c3)c2c1=O`: the survival was inactive: 82%.

Turning to `COc1cc(C(CC(=O)NCCC(C)C)N2Cc3ccccc3C2=O)cc(OC)c1OC` (stereo unspecified), the survival was inactive: 94%.

Regarding `COc1cc(NC(=O)CN2CCN(CC(=O)Nc3ccc(F)cc3)CC2)cc(OC)c1`, the survival was inactive: 70%.

For `Cc1sc2nc(SCC(=O)N(CCO)CCO)nc(N)c2c1C`, the survival is inactive: 100%.

Consider `N#Cc1ccc(CSc2nc3c(c(=O)[nH]2)CCCC3)cc1`, for which the survival is inactive: 56%.

With `CC(C)C1CC(c2csc(N)n2)CCO1` (stereo unspecified), the survival is inactive: 78%.

Regarding `Cc1cccc(N(C)C(=O)CCNS(=O)(=O)c2ccc3c(c2)CCN3C(=O)C2CC2)c1`, the survival is inactive: 94%.

Take `CCOC(=O)c1c(NC(=O)c2cc(C)on2)sc(C)c1C`: the survival was active: 47%.

As to `CNC(=O)c1ccc(Nc2nnc(-c3ccc(C)c(S(=O)(=O)N4CCCCC4)c3)c3ccccc23)cc1`, the survival was active: 54%.

As for `Cc1ccc(-n2ncc3c(N4CCN(C)CC4)ncnc32)cc1Cl`, the survival was inactive: 96%.

For the molecule `CCOc1ccc(NC(=O)CCS(=O)(=O)c2cccc3nonc23)cc1`, the survival is inactive: 78%.

`CCc1cccc(NC(=O)CSc2ncccc2C(=O)Oc2ccccc2Cl)c1`: the survival was inactive: 78%.

Regarding `COc1ccc(CNC(=O)CCC(=O)N2CC3CCCN3c3ccccc32)c(OC)c1` (stereo unspecified), the survival is inactive: 78%.

Regarding `CCOc1ccc(C2C(=O)N(C3CCCCC3)CC(=O)N2C2CCCC2)cc1OC` (stereo unspecified), the survival was inactive: 71%.

As for `COc1cc(NC(=O)Cc2c(C(=O)O)c(C)cn2C)cc(OC)c1`, the survival is inactive: 102%.

For the molecule `COc1ccc(/C=C/C(=O)Nc2sc3c(c2C(N)=O)CCC(C)C3)cc1OC` (stereo unspecified), the survival was active: 34%.

As for `CCC(Sc1nc2nccnc2c(=O)n1Cc1ccc(OC)cc1)C(=O)NC1CCCCC1` (stereo unspecified), the survival was inactive: 104%.

For the molecule `CC(C)C12CN3CC(C(C)C)(CN(C1)C3c1ccc(OCc3ccccc3)cc1)C2=O` (stereo unspecified), the survival was inactive: 85%.

With `CC(C)n1c(SCC(=O)Nc2ccc(F)cc2)nc2c(oc3ccccc32)c1=O`, the survival is inactive: 95%.

In the case of `CCOc1ccccc1CNC(=O)c1ccc2c(c1)sc1nc(-c3cccc(OC)c3)cn12`, the survival is inactive: 66%.

In the case of `COC(=O)c1cc(S(=O)(=O)NCC2CCN(Cc3ccc(C)cc3)CC2)c[nH]1`, the survival is inactive: 118%.

`CCOc1ccc(-n2c(SCC(=O)Nc3ccc(F)cc3)nc3c([nH]c4ccccc43)c2=O)cc1`: the survival was inactive: 69%.

For `NC(=O)c1cc2ccc(O)cc2oc1=O`, the survival was inactive: 74%.

As for `C=CCn1c(=S)[nH]c2ccccc2c1=O`, the survival was inactive: 95%.

Regarding `Cc1cc(C)c2c(=O)cc(C(=O)Nc3sc4c(c3C(=O)NCc3cccnc3)CCCC4)oc2c1`, the survival was inactive: 68%.

As to `O=C(Cc1c(F)cccc1Cl)NCCCn1ccnc1`, the survival was inactive: 107%.

As to `CCCn1c(-c2cccc(Br)c2)nc2ccccc21`, the survival was active: -4%.

On to `CCCN1C(=O)C(Cc2nc3ccccc3c(=O)n2-c2cccc(C)c2)c2ccccc21` (stereo unspecified), for which the survival is active: 36%.

Consider `Cn1ncc(C(=O)N2CCN(c3ccc(F)cc3)CC2)c1C1CCN(C(=O)OC(C)(C)C)CC1`, for which the survival was inactive: 95%.

As to `CCCC(c1nnnn1CC1CCCO1)N(Cc1cc2cc(C)cc(C)c2[nH]c1=O)C1CCCC1` (stereo unspecified), the survival is inactive: 81%.

With `CC(C)(C)OC(=O)N1CCC(c2nnc(SCc3ccccc3)o2)CC1`, the survival is inactive: 96%.

For `O=C1OC(C(=O)Nc2ccc(Cl)c(C(F)(F)F)c2)Cc2ccccc21` (stereo unspecified), the survival is inactive: 55%.

`COc1ccccc1CNC(=O)c1ccc(N2Cc3cccc(OC)c3Oc3ncccc32)s1`: the survival was inactive: 79%.

With `COc1ccc(-c2noc(-c3ccc(N4CCCCC4C)c([N+](=O)[O-])c3)n2)cc1OC` (stereo unspecified), the survival was inactive: 104%.

On to `Cc1ccccc1NC(=O)C(C)Sc1nnc(-c2ccccc2C)o1` (stereo unspecified), for which the survival was inactive: 74%.

`Cc1ccc(C(=O)n2nc(C)c(S(=O)(=O)N3CCCCCC3)c2C)cc1`: the survival was inactive: 91%.

With `COc1cccc(C2C(C(=O)Nc3ccccc3)=C(C)Nc3nc(-c4ccccc4)nn32)c1OC` (stereo unspecified), the survival was inactive: 158%.

`C=CCNCc1cc2cc(C)cc(C)c2[nH]c1=O`: the survival was inactive: 69%.

In the case of `Cc1cccc(-c2noc(-c3ccc(N4CCN(C)CC4)c([N+](=O)[O-])c3)n2)c1`, the survival was active: 22%.

`Cc1ccc(C)c(CN2CCC(CNC(=O)c3cc4ccc5cccnc5c4[nH]3)CC2)c1`: the survival is inactive: 83%.

Turning to `Cc1ccc(C)c(S(=O)(=O)n2nnc3ccccc32)c1`, the survival is inactive: 86%.

As to `O=C(Nc1ncn[nH]1)C(F)(F)C(F)F`, the survival was inactive: 68%.

For `Cc1ccc(C2=CC(c3c(F)cccc3Cl)n3ncnc3N2)cc1C` (stereo unspecified), the survival is inactive: 64%.

In the case of `CC(=O)Nc1cc(-c2nc3ccccc3s2)ccc1C`, the survival is inactive: 83%.

Regarding `Cc1cc(C)cc(NC(=O)C2CCCN2S(=O)(=O)c2cccc3nsnc23)c1` (stereo unspecified), the survival was inactive: 86%.

For the molecule `CCn1c(-c2ccc(S(=O)(=O)N3CCOCC3)cc2)csc1=Nc1ccc(C)c(Cl)c1`, the survival is inactive: 73%.

Consider `O=C(CSc1nnc2[nH]c(=O)cc(-c3ccccc3)n12)Nc1ccc(F)cc1F`, for which the survival was inactive: 85%.

On to `COc1ccc(NC(=O)CSc2nc3nc(C)c(Cc4ccccc4Cl)c(C)n3n2)cc1OC`, for which the survival was inactive: 93%.

Consider `COc1ccc(C)cc1NS(=O)(=O)c1cc2c3c(c1)CC(=O)N3CCC2`, for which the survival is inactive: 105%.

`CCOc1cc(NC(=O)C2CC2)c(OCC)cc1NC(=O)CCn1nnc2ccccc21`: the survival is inactive: 80%.

`CCn1c(=N)c(C(=O)NC2CCCCC2)cc2c(=O)n3cc(C)ccc3nc21`: the survival was inactive: 45%.

For `Cc1ccccc1CCNC(=O)c1cc2cc(S(=O)(=O)N3CCCCC3)ccc2n1C`, the survival was active: 20%.

In the case of `COc1ccc(-n2c(=O)c3ccccc3n(CC(=O)NCCc3ccc(OC)c(OC)c3)c2=O)cc1`, the survival was inactive: 90%.

As to `COc1cc2c(cc1OC)C(COc1cc(C)cc(C)c1)N(C(=O)COc1ccccc1)CC2` (stereo unspecified), the survival was inactive: 74%.

With `COc1ccc(Cl)cc1NC(=O)CCCN1C(=O)C(c2ccccc2)Oc2cccnc21` (stereo unspecified), the survival was inactive: 93%.

In the case of `CCN(CC)c1ccc(NC(=O)c2sc3nc4c(cc3c2N)CN(C)CC4)cc1`, the survival is inactive: 181%.

On to `CC(C)(C)C(=O)C1=C(O)C(=O)N(c2ccccc2)C1c1ccccc1` (stereo unspecified), for which the survival was inactive: 64%.

On to `CCn1c(C(=O)N2CCCC(C(=O)N3CCN(c4cc(C)ccc4C)CC3)C2)cc2sccc21` (stereo unspecified), for which the survival was inactive: 62%.

Turning to `O=C(Nc1ccc2nc(SCC(=O)N3CCc4ccccc43)sc2c1)c1cccc(Cl)c1`, the survival is inactive: 100%.

Take `COc1cc(OC)c(OC)cc1CNc1sc2c(c1C(=O)Nc1ccccc1OC)CCC2`: the survival was inactive: 113%.

The values are drawn from PubChem BioAssay AID463173 (ICCB-Longwood Screening Facility, Harvard Medical School, 2010).
